Our source for the cytotoxicity call and growth inhibition call values is the antibiotic and cytotoxicity screens of Wong et al. (2023).

The test system of one experiment is HSkMC. Description: cytotoxicity call (relative viability < 0.9). Particulars: 10 µM.
The next experiment concerns HepG2. Kind of experiment: cytotoxicity call (relative viability < 0.9). Particulars: 10 µM.
The subject of the next experiment is S. aureus RN4220. Kind of experiment: growth inhibition call (relative growth <= 0.2). Particulars: 50 µM.

Structures are written as SMILES. This is one part of the list.

For `C[C@@H]1CN([C@@H](C)CO)C(=O)c2cc(NC(=O)C3CCCCC3)ccc2O[C@@H](C)CCCCO[C@@H]1CN(C)S(=O)(=O)c1ccccc1`, the cytotoxicity call with HSkMC and in the experiment with HepG2 was “inactive” in each case. For the same molecule, the growth inhibition call in the experiment on S. aureus RN4220 was “inactive”.

Take `COc1ccc(NC(=O)Nc2cccc3c2O[C@@H](CN(C)Cc2ccc(Cl)c(Cl)c2)[C@@H](C)CN([C@H](C)CO)C3=O)cc1`: the cytotoxicity call in the experiment with HSkMC was “inactive”. The cytotoxicity call in the experiment with HepG2 is “active”. In addition, the growth inhibition call with S. aureus RN4220 is “inactive”.

As to `C[C@@H]1CN([C@@H](C)CO)C(=O)c2cc(NC(=O)Nc3cccc4ccccc34)ccc2O[C@@H]1CN(C)Cc1ccc(-c2ccccc2)cc1`, the cytotoxicity call in the experiment on HSkMC was “active”. Also, the cytotoxicity call with HepG2 was “inactive”. The growth inhibition call in the experiment with S. aureus RN4220 was “inactive”.

`CCN1C[C@]23CN(C(=O)c4cnccn4)C[C@@H](C[C@H]2S1(=O)=O)O3`: the cytotoxicity call in the experiment with HSkMC and in the experiment on HepG2 was “inactive” throughout. Also, the growth inhibition call with S. aureus RN4220 was “inactive”.

As to `CC1NC(=O)C2CCCN2C(=O)C(CC(N)=O)NC(=O)C2CSSCC(N)C(=O)NC3CSSCC(NC1=O)C(=O)NC(C(C)O)C(=O)NCC(=O)NC(C(=O)NC(Cc1ccc(O)cc1)C(=O)O)CSSCC(NC(=O)C(Cc1ccc(O)cc1)NC(=O)C(CCC(=O)O)NC3=O)C(=O)N2` (centres undefined), the cytotoxicity call in the experiment with HSkMC and with HepG2 was “inactive” each time. The growth inhibition call with S. aureus RN4220 is “inactive”.

As to `Cc1noc(C)c1NC(=O)Nc1ccc2c(c1)C(=O)N([C@H](C)CO)C[C@@H](C)[C@@H](CN(C)C(=O)Nc1ccc(C(F)(F)F)cc1)OCCCC[C@@H](C)O2`, the cytotoxicity call with HSkMC and with HepG2 was “inactive” throughout. Further, in the experiment on S. aureus RN4220, the growth inhibition call was “inactive”.

On to `COCC(=O)N1C[C@H](C)[C@@H](OC)CN(C)C(=O)c2cc(NC(=O)c3ccc(OC)cc3)ccc2OC[C@@H]1C`, for which the cytotoxicity call with HSkMC and in the experiment with HepG2 was “inactive” throughout. For the same molecule, the growth inhibition call in the experiment with S. aureus RN4220 was “inactive”.

For the molecule `C[C@@H]1CN([C@H](C)CO)C(=O)c2cc(NC(=O)Cc3ccccc3)ccc2O[C@@H](C)CCCCO[C@H]1CN(C)Cc1ccccc1`, the cytotoxicity call in the experiment on HSkMC and in the experiment with HepG2 was “inactive” throughout. In addition, in the experiment on S. aureus RN4220, the growth inhibition call was “inactive”.

Take `CC(=O)N[C@@H](CCCNC(=N)N)C(=O)N[C@H]1CSSC[C@@H](C(N)=O)NC(=O)[C@H](Cc2c[nH]c3ccccc23)NC(=O)[C@H](CCCNC(=N)N)NC(=O)[C@@H](Cc2ccccc2)NC(=O)[C@H](Cc2cnc[nH]2)NC(=O)[C@@H](C)NC1=O`: the cytotoxicity call with HSkMC and in the experiment with HepG2 was “inactive” in each case. Also, the growth inhibition call in the experiment with S. aureus RN4220 is “inactive”.

As for `NCc1n[nH]c(=O)c2ccccc12`, the cytotoxicity call with HSkMC and in the experiment on HepG2 was “inactive” in each case. Besides, the growth inhibition call with S. aureus RN4220 is “inactive”.

Take `CCS(=O)(=O)Nc1ccc2c(c1)C(=O)N(C)[C@H]1CC[C@H](CC(=O)NCCOC)O[C@@H]1CO2`: the cytotoxicity call with HSkMC and with HepG2 was “inactive” throughout. In addition, the growth inhibition call with S. aureus RN4220 is “inactive”.

Turning to `C[C@H]1CCCCO[C@H](CN(C)C(=O)Nc2ccc(C(F)(F)F)cc2)[C@@H](C)CN([C@@H](C)CO)C(=O)c2cc(NS(=O)(=O)c3cn(C)cn3)ccc2O1`, the cytotoxicity call in the experiment on HSkMC and in the experiment on HepG2 was “inactive” in each case. For the same molecule, in the experiment with S. aureus RN4220, the growth inhibition call was “inactive”.

For the molecule `COc1ccc(NC(=O)N(C)C[C@@H]2Oc3ncc(C#C[C@H](C)O)cc3C(=O)N([C@H](C)CO)C[C@H]2C)cc1`, the cytotoxicity call with HSkMC and with HepG2 was “inactive” each time. In addition, the growth inhibition call with S. aureus RN4220 is “inactive”.

As to `C[C@H]1CN([C@@H](C)CO)C(=O)c2cccc(NS(=O)(=O)c3ccccc3)c2O[C@H]1CN(C)CC1CC1`, the cytotoxicity call in the experiment with HSkMC and with HepG2 was “inactive” throughout. Further, in the experiment with S. aureus RN4220, the growth inhibition call is “inactive”.

Turning to `NCCCCCc1nc2ccccc2[nH]1`, the cytotoxicity call with HSkMC and with HepG2 was “inactive” throughout. The growth inhibition call with S. aureus RN4220 is “inactive”.

On to `COc1ccc2c3c([nH]c2c1)[C@@H](CO)N(C[C@]13CCN(CC1)C(=O)c1cnccn1)C(=O)c1cnccn1`, for which the cytotoxicity call in the experiment with HSkMC and in the experiment on HepG2 was “inactive” in each case. In the experiment with S. aureus RN4220, the growth inhibition call was “inactive”.

Turning to `CC(C)CC#Cc1ccc2c(c1)O[C@@H](CN(C)S(=O)(=O)c1cccc(F)c1)[C@@H](C)CN([C@H](C)CO)S2(=O)=O`, the cytotoxicity call with HSkMC and in the experiment on HepG2 was “inactive” in each case. The growth inhibition call with S. aureus RN4220 is “inactive”.

On to `CC(C)NC(=O)Nc1ccc2c(c1)C(=O)N([C@@H](C)CO)C[C@@H](C)[C@@H](CN(C)C(=O)C1CCCCC1)OCCCC[C@@H](C)O2`, for which the cytotoxicity call with HSkMC and in the experiment with HepG2 was “inactive” each time. The growth inhibition call in the experiment on S. aureus RN4220 is “inactive”.

As for `Cc1ccc(C2(CN3CCN4C(=O)CN(C)C(=O)[C@H]4C3)CCNCC2)nc1`, the cytotoxicity call with HSkMC and with HepG2 was “inactive” throughout. Further, the growth inhibition call in the experiment with S. aureus RN4220 was “inactive”.

`C[C@H](CO)N1C[C@H](C)[C@@H](CN(C)C(=O)Nc2ccccc2)Oc2c(NS(=O)(=O)c3cn(C)cn3)cccc2C1=O`: the cytotoxicity call with HSkMC and in the experiment with HepG2 was “inactive” each time. Besides, the growth inhibition call in the experiment with S. aureus RN4220 is “inactive”.

As for `CNC[C@@H]1Oc2ccc(NC(=O)Cn3cnnn3)cc2CC(=O)N([C@@H](C)CO)C[C@@H]1C`, the cytotoxicity call in the experiment with HSkMC and in the experiment on HepG2 was “inactive” each time. Further, the growth inhibition call in the experiment with S. aureus RN4220 was “inactive”.

Take `C[C@H]1CN([C@@H](C)CO)C(=O)Cc2cc(NC(=O)c3ccncc3)ccc2O[C@@H]1CN(C)S(=O)(=O)c1ccccc1`: the cytotoxicity call with HSkMC and with HepG2 was “inactive” each time. Also, the growth inhibition call in the experiment with S. aureus RN4220 was “inactive”.

For `C[C@@H]1CN([C@H](C)CO)C(=O)c2cc(NS(=O)(=O)c3ccc(Cl)cc3)ccc2O[C@@H](C)CCCCO[C@H]1CN(C)C(=O)Nc1ccccc1`, the cytotoxicity call in the experiment with HSkMC and in the experiment on HepG2 was “inactive” in each case. Also, in the experiment with S. aureus RN4220, the growth inhibition call is “inactive”.

On to `COc1ccc(-c2cc(=O)c3c(O)cc(O)c(-c4cc(-c5cc(=O)c6c(O)cc(O)cc6o5)ccc4OC)c3o2)cc1`, for which the cytotoxicity call with HSkMC and in the experiment with HepG2 was “inactive” throughout. In addition, the growth inhibition call in the experiment on S. aureus RN4220 was “inactive”.

For the molecule `C[C@H](CO)N1C[C@H](C)[C@@H](CN(C)C(=O)Nc2ccccc2)Oc2c(NC(=O)c3ccc(-c4nccs4)cc3)cccc2C1=O`, the cytotoxicity call in the experiment on HSkMC (human skeletal muscle cells) and in the experiment on HepG2 was “inactive” each time. Besides, the growth inhibition call in the experiment with S. aureus RN4220 is “inactive”.

For `C[C@H](NC(=O)[C@H]1N[C@H]2c3ccc(-c4ccc(C(=O)N(C)C)cc4)c(=O)n3C[C@H]2[C@@H]1CO)c1ccccc1`, the cytotoxicity call with HSkMC and with HepG2 was “inactive” in each case. The growth inhibition call in the experiment with S. aureus RN4220 was “inactive”.

`C[C@@H]1CN([C@@H](C)CO)C(=O)c2cc(NC(=O)Nc3ccc(F)cc3)ccc2O[C@H]1CN(C)Cc1ccc(C(F)(F)F)cc1`: the cytotoxicity call in the experiment with HSkMC and in the experiment with HepG2 was “active” in each case. Further, the growth inhibition call in the experiment on S. aureus RN4220 was “inactive”.

Consider `C[C@@H]1CCCCO[C@H](CN(C)Cc2ccc(Cl)c(Cl)c2)[C@@H](C)CN([C@@H](C)CO)C(=O)c2cc(NS(=O)(=O)c3ccc(Cl)cc3)ccc2O1`, for which the cytotoxicity call in the experiment with HSkMC and in the experiment on HepG2 was “active” each time. The growth inhibition call with S. aureus RN4220 was “inactive”.
